In all, about 46,000 compounds went through this assay and about 60 (0.1%) were called active. Roughly 3% stayed inconclusive and do not appear here. Calls come from the whole dose curve; as a rule, active = well fitted inhibition curve with a large enough effect; inconclusive = small, poorly fitted or top-dose-only effect; inactive = no such curve, though single readings can be large or run the other way. The list shows a part of the results.
Experiment: Primary qHTS assay for Inhibitors of ovarian cancer metastasis using an organotypic tumor microenvironment (TME) model.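 For activity change, negative = inhibition: plate controls were DMSO wells for no effect and tomatine positive control wells for full effect.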 Note: nearly all actives have a fitted effect of over 65% in size.
Conditions: SKOV3ip1-GFP adhesion/invasion on 3D omental model, fluorescence; series mostly up to 45.8 µM; activity change, negative = inhibition: at the top concentration
In short: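 A 3D layer of primary human omental fibroblasts, mesothelial cells, fibronectin and collagen I, grown 48 hr, received SKOV3ip1-GFP cells in serum-free medium plus compounds at 0.36-46 umol/L. After 2 hr RT and 16 hr 37 C, fixed adherent GFP cells were counted; normalized to DMSO and tomatine.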

Activity change, negative = inhibition, inactive:
CCCN(CCC)CCCNC(=O)Cn1cnc2sc(C)c(S(=O)(=O)N3CCC(C)CC3)c2c1=O -2.21%, CCN(C)C(=O)Oc1cccc([C@H](C)N(C)C)c1 -28.6%, O=C(c1cccs1)N1CCCc2cc(NS(=O)(=O)c3ccc(F)cc3F)ccc21 1.31%, COC(=O)C1CCN(S(=O)(=O)c2cc3c4c(c2)CC(=O)N4CCC3)CC1 0.529%, CCOCCCn1c(=N)c(C(=O)NCC2CCCO2)cc2c(=O)n3cccc(C)c3nc21 (stereo unspecified) -1.77%, Cc1ccc(C)c(NC(=O)Cn2c(=O)n(Cc3ccccc3)c(=O)c3oc4ccccc4c32)c1 10.8%, Nc1ccc(S(=O)(=O)Nc2ccnn2-c2ccccc2)cc1 -7.05%, COc1ccc(Br)cc1CNC(=O)c1ccc2c(c1)N(Cc1ccc(C)cc1)CCS2 -0.83%, COc1ccc2c(c1)NC(c1cccnc1)=NC(c1ccc(F)cc1)=N2 -2.87%, Cc1ccc(S(=O)(=O)c2cn(Cc3ccccc3Cl)c3ccc(F)cc3c2=O)cc1 -1.09%, C[C@@H](N)c1ccc(C(=O)Nc2ccnc3[nH]ccc23)cc1 -11.1%, CCCN1CCc2nc(N3CCN(c4ncccn4)CC3)ncc2C1 -3%, Cc1cccc(OCCCn2c(CCNC(=O)C(C)(C)C)nc3ccccc32)c1 -4.71%, Cc1ccc(C)c(CN2C(=O)c3ccccc3S(=O)(=O)c3ccc(C(=O)NCc4ccccc4)cc32)c1 -4.33%, Cc1c(C(=O)NCc2ccccc2Cl)sc2nc[nH]c(=O)c12 12.4%, COc1ccc(CN(Cc2ccco2)c2cnc(S(C)(=O)=O)nc2C(=O)Nc2ccc(C)cc2C)cc1 1.31%, COc1ccc(S(=O)(=O)Nc2cc3c(cc2NCc2ccccc2)n(C)c(=O)n3C)cc1 -6.86%, CCOc1ccc(C(=O)Nc2ccc3oc(-c4cccnc4)nc3c2)cc1 5.85%, CCOCCCNC(=O)C(=O)Nc1c2c(nn1-c1ccc(OC)cc1)CSC2 2.41%, Cc1ccc2c(=O)c(C(=O)c3ccc(F)cc3)cn(CC(=O)NCCc3ccccc3)c2n1 -15.8%, Cc1nc(-c2ccc(S(=O)(=O)N3CCN(c4ccc(F)cc4)CC3)cc2)co1 -5.5%, CN1CCN(CCCNC(=O)c2ccc3nc(Cc4ccccc4)oc3c2)CC1 9.81%, Cc1ccc(-n2nc3c(=O)n(CCCC(=O)NCc4ccccc4F)nc(C)c3c2C)cc1 -23.8%, O=C(CSc1nc2ccncc2[nH]1)Nc1ccccc1C(F)(F)F 9.84%, O=C(Nc1c(C(=O)N2CCN(c3ccccc3F)CC2)oc2ccccc12)c1ccccc1F -5.97%, Cc1csc2nc(COC(=O)CNC(=O)c3ccccc3Cl)cc(=O)n12 -14%, COc1cccc2c1Oc1ncccc1N(C(=O)CCC(=O)NCc1ccc(C)cc1)C2 1.46%, COc1ccccc1-c1nnc(C2CCN(C(=O)c3ccc(Cl)cc3)CC2)o1 -11.8%, Cc1ccc(Cn2c(CNC(=O)c3cccc(C)c3)nc3ccccc32)cc1 2.76%, CCC(=O)N1CCc2cc(Br)cc(S(=O)(=O)CCC(=O)NCc3ccc(F)cc3)c21 -3.72%, CC(=O)N1CCOc2cc(S(=O)(=O)N(C)Cc3ccccc3)c(Cl)cc21 3.93%, N#Cc1ccccc1NC(=O)c1cnc(N2CCOCC2)c2ccccc12 15.1%, CCc1ccc(N(C)S(=O)(=O)c2ccc3[nH]cc(C(=O)NCC4CCCO4)c(=O)c3c2)cc1 (stereo unspecified) -0.319%, COc1ccc(C)cc1NC(=O)CSc1nc(=O)n(Cc2ccccn2)c2c1CCC2 1.91%, Cc1oc(-c2ccc(C(=O)Nc3ccccc3F)cc2)nc1COc1ccccc1 3.84%, CCN1C(=O)C(Cc2nc3ccccc3c(=O)n2-c2ccccc2)c2cc(Br)ccc21 (stereo unspecified) -4.05%, CCc1ccc2nc(N3CCN(C(=O)C4CC4)CC3)sc2c1 -1.79%, CCOc1ccccc1NC(=O)Cn1c2ncccc2c(=O)n1-c1ccc(C)c(C)c1 5.15%, COc1ccc(CNc2oc(-c3ccc(COc4ccc(OC)cc4)o3)nc2C#N)cc1 1.19%, Cc1cccc(C)c1NC(=O)CN1C(=O)c2cccc3cccc1c23 8.89%, COc1ccc(C2C(=O)N(C3CCC(C)CC3)CC(=O)N2CCC2=CCCCC2)cc1OC (stereo unspecified) -3.96%, CC(=O)N1CCCc2cc(S(=O)(=O)Nc3ccc(C)c(F)c3)ccc21 2.07%, Cc1oc2c(c(C)cc3oc(=O)c(CC(=O)NCc4ccc(F)cc4)c(C)c32)c1C -0.84%, Cc1cccc(NC(=O)Cn2c(=O)oc3cc(S(=O)(=O)NC4CCCC4)ccc32)c1 -2.98%, CCOC(=O)c1ccc(NS(=O)(=O)c2ccc3[nH]c4c(c3c2)CCCCC4)cc1 -5.09%, Cc1cc(C)c(OCC(=O)N(Cc2cccc(F)c2)Cc2ccco2)c(C)c1 4%, CC(=O)N1CCc2cc(S(=O)(=O)NC(Cc3ccccc3)C(=O)Nc3ccc(Cl)cc3)ccc21 (stereo unspecified) 10.9%, CCc1nn(CC(=O)N2CCN(c3cccc(C(F)(F)F)c3)CC2)c(=O)c2cccn12 -1.19%, COc1ccc2c(c1)c1c(c(=O)n(-c3ccccc3C)c(=O)n1Cc1c(F)cccc1Cl)n2C 1.99%, Cc1cccc(Nc2c3c(nc4nncn24)CCC3)c1C -20.8%, CC1Cc2ccccc2N1NC(=O)c1ccc(Cl)c(S(N)(=O)=O)c1 (stereo unspecified) 6.53%, CCOC(=O)C1(C)C=C(Nc2ccc(C(=O)O)cc2)C(=O)N1c1ccc(C(=O)O)cc1 (stereo unspecified) -7.25%, CCCCN(C)C(=O)Cn1c(SCC(=O)Nc2ccc(C)c(C)c2)nc2ccccc21 1.35%, CCOC(=O)c1c(C)oc2nc(C)nc(NCC3CCN(Cc4cccc(Cl)c4)CC3)c12 0.718%, Cc1cccc(NC(=O)C2CCCN(c3nc4ccccc4s3)C2)c1C (stereo unspecified) -20.4%, Cc1cc(Nc2ccc(F)cc2)nc(-n2nc(C)cc2C)n1 0.313%, O=S(=O)(Nc1ccc(Cl)cc1)c1cccc(S(=O)(=O)c2ccc(Cl)c(Cl)c2)c1 3.45%, CC(=O)c1ccc(N2C(=O)N(Cc3cc(C)ccc3C)c3ccccc3S2(=O)=O)cc1 7.42%, COc1cccc2cc(-c3nc(-c4ccc(C)cc4)c(C)s3)c(=O)oc12 -6.98%, CCOc1ccccc1NC(=O)CN1C=NS(=O)(=O)c2ccccc21 -6.72%, Cc1ccc(CCNC(=O)c2ccc(CS(=O)(=O)Cc3ccccc3F)o2)cc1 6.14%, COc1ccc(NC(=O)Cn2c(=O)n(-c3ccc(C)c(C)c3)c(=O)c3c(C)c(C)sc32)cc1 24.2%, COc1ccc(NC(=O)Cc2noc3ccc(C)cc23)cc1Cl 11.6%, CCc1cccc(C)c1NC(=O)CCn1nc(C)c2c(C)n(-c3ccccc3)nc2c1=O -2.7%, CCc1ccc2c(c1)c(=O)c(S(=O)(=O)c1ccccc1)cn2CC(=O)Nc1ccc(OC)cc1 27.8%, COCC(=O)N1c2nc(-c3ccco3)nn2C2(CCCCC2)[C@@H]2CCCC[C@@H]21 3.59%, Cc1ccc(NC(=O)Cn2nnc(C(=O)NCCc3ccccc3)c2N)cc1Cl -2.45%, CCOC(=O)c1c(S(=O)(=O)N2CCC(C(=O)Nc3cccc(C)n3)CC2)c(C)n(C)c1C -2.44%, COc1ccc(N2CCN(c3cc(C)nc4nncn34)CC2)cc1 24.2%, Cc1ccc(C)c(N2CCN(c3nc4c(S(=O)(=O)c5ccccc5)nnn4c4ccc(Cl)cc34)CC2)c1 10.8%, Cc1ccc(CCNC(=O)c2ccc(NC(=O)N3CCSc4ccccc43)cc2)cc1 0.799%, Cc1ccc(CNC(=O)C(C)n2ccc3cc(S(=O)(=O)N4CCCC4)ccc32)cc1 (stereo unspecified) -16.3%, Cc1ccc(S(=O)(=O)NCCc2csc3nc(-c4ccccc4C)nn23)cc1 8.48%, O=C(CSc1nc2ccccc2n1Cc1c(F)cccc1Cl)N1CCN(c2ccc(F)cc2)CC1 -29.8%, O=C(CSc1nc2ccsc2c(=O)n1Cc1ccccc1Cl)NCc1ccc(Cl)cc1 -8.96%, CCOc1cc(CNC(=O)c2ccc3nc(CCc4ccccc4)oc3c2)ccc1OC -7.37%, CCOc1ccc(N2CC(c3nc4ccccc4n3CCOc3ccc(CC)cc3)CC2=O)cc1 (stereo unspecified) -8.45%, Cc1ccccc1NC(=O)c1cnc2sc(N3CCCC3)nn2c1=O 8.28%

outcome, inactive:
Cc1cccc(NS(=O)(=O)c2ccc3c(c2)CCN3C(=O)C2CCC2)c1, COC(=O)C1=C(c2ccccc2)c2ccccc2S(=O)(=O)N1CC(=O)Nc1ccccc1Cl, Cc1ccc(C)c(N2CCN(Cc3csc(C)c3)CC2)c1, Cc1ccc(CN2C(=O)c3ccccc3Sc3ccc(C(=O)OCc4ccco4)cc32)cc1, CCn1cc2nc(SCc3cc(C)ccc3C)n(Cc3ccc(OC)cc3)c(=O)c2n1, Cc1cccc(OCCSc2nc3ccc(NC(=O)COc4ccccc4)cc3s2)c1, CCn1cc(C(=O)NCc2ccc(C)cc2)c(=O)c2cc(S(=O)(=O)N3CCc4ccccc4C3)ccc21, O=C(CN1CCCN(Cc2ccc(F)cc2)S1(=O)=O)NCc1ccccc1Cl, CCOc1ccc(NC(=O)CN2C(=O)C3(SCC(=O)N3c3ccc(F)cc3)c3ccccc32)cc1 (stereo unspecified), CCOC(=O)C1CCCN(C(=O)Cn2nc(CC)n3c(cc4occc43)c2=O)C1 (stereo unspecified), Cc1ccc(NC(=O)CCNS(=O)(=O)c2ccc3c(c2)CCCC(=O)N3)cc1, COc1cccc(N2CC(NC(=O)C3CC3)CC2=O)c1 (stereo unspecified), CC1=C(C(=O)Nc2cccc(C(F)(F)F)c2)C(c2ccccc2)n2ncnc2N1 (stereo unspecified), CCCN(C(=O)c1cc2c(=O)oc3ccccc3c2s1)c1ccccc1C, CCC(C)NC(=O)Cn1c(=O)ccc2cc(S(=O)(=O)N3CCCC3)ccc21 (stereo unspecified), CCOc1ccc2c(c1)c(=O)c(C(=O)c1ccc(CC)cc1)cn2CC(=O)Nc1ccccc1C, COc1ccc(NC(=O)CN2C(=O)C3(SCC(=O)N3c3cccc(OC)c3)c3ccccc32)cc1 (stereo unspecified), CCC(C(=O)N1CCN(c2ccccc2)CC1)n1nc(C)c2sc3ccccc3c2c1=O (stereo unspecified)

Reference: PubChem BioAssay AID1963576 (National Center for Advancing Translational Sciences (NCATS), 2024)
